Experimental data as given in FireProtDB (doi:10.1110/ps.3200102).
Several values for one entry are separate records, joined by “and”; a condition that tells them apart may be missing. Equal entries are not always repeated.

Settings: Escherichia coli (strain K12); pH 7.5; 20 °C; Thermal; CD; Na2HPO4 25 mM; reversible: yes; whole UniProt chain shown

B1: ATP synthase subunit a wild type, P0AB98 (protein)
chain: MASENMTPQDYIGHHLNNLQLDLRTFSLVDPQNPPATFWTINIDSMFFSVVLGLLFLVLFRSVAKKATSGVPGKFQTAIELVIGFVNGSVKDMYHGKSKLIAPLALTIFVWVFLMNLMDLLPIDLLPYIAEHVLGLPALRVVPSADVNVTLSMALGVFILILFYSIKMKGIGGFTKELTLQPFNHWAFIPVNLILEGVSLLSKPVSLGLRLFGNMYAGELIFILIAGLLPWWSQWILNVPWAIFHILIITLQAFIFMVLTIVYLSMASEEH
  unfolding free energy: 1.7 kcal/mol and 1.8 kcal/mol and 1 kcal/mol
